Read counts are not given, so values of variants with three or more changes are uncertain.
B1: OR4K15 (parent)
chain: GUUAACGGUCAUAGGCCAUGGAAACUAGGAGCACCAUUUCGCUGCCAGUGAAGAAAUGAACAAAGAAAAUCUGGGCCAGGCAGGCAUCAAAAGAAAUAGUCUUGCGCUCAACCAGAAAGUCUGUAAUCAUUUUAAGGGUA

Variants of: B1
Experiment: self-cleavage, relative activity (ratio to wild type); higher = more cleavage; in vitro, sequencing; the parent is a self-cleaving ribozyme

Which self-cleavage does the source give for A59U U72C A96C A111U here?
The self-cleavage was 0.04.

Which self-cleavage does the source give for A33G A126U U127C here?
Its self-cleavage is 0.14.

For U19C A22G G50A A52G A62G A86G A91G, which self-cleavage is on record?
The self-cleavage was 0.17.

With U19A G48U A60G C76U A94G as the variant, how does the self-cleavage read?
Its self-cleavage is 0.08.

Which self-cleavage does the source give for U38C A64G U70C U102C here?
The self-cleavage was 2.16.

Which self-cleavage does the source give for A13G G75A A82G A89U here?
The self-cleavage was 0.24.

For U12A U87C U127C, which self-cleavage is on record?
Its self-cleavage is 1.38.

Which self-cleavage does the source give for A92C A95G C105A here?
Its self-cleavage is 0.02.

For A33G U72A A98G U108C, which self-cleavage is on record?
The self-cleavage was 0.01.

For U102C A116G A117G A126G, which self-cleavage is on record?
The self-cleavage was 0.7.

Which self-cleavage does the source give for A30U A52G A95G here?
The self-cleavage was 0.98.

For U37C A62G A82G, which self-cleavage is on record?
Its self-cleavage is 0.84.

For A51G U102C U133C, which self-cleavage is on record?
The self-cleavage was 1.66.

With U9A A90G A117G as the variant, how does the self-cleavage read?
Its self-cleavage is 0.47.

For A18G A47G A116U, which self-cleavage is on record?
Its self-cleavage is 0.51.

Which self-cleavage does the source give for U49C A62G A82U A90G A110G U130C here?
The self-cleavage was 0.

Which self-cleavage does the source give for G29A C46G A54U U108C here?
Its self-cleavage is 0.

For C71A A111G A116G, which self-cleavage is on record?
Its self-cleavage is 0.

With A27G A98G U132G as the variant, how does the self-cleavage read?
The self-cleavage was 0.85.

With U43A A62G C81U A117G as the variant, how does the self-cleavage read?
The self-cleavage was 0.36.

With A5G G41U A92G A114G A126G as the variant, how does the self-cleavage read?
The self-cleavage was 0.11.

For U26C A67G A96U A111G, which self-cleavage is on record?
The self-cleavage was 0.

For A27G A51G C88U, which self-cleavage is on record?
The self-cleavage was 1.13.

For A63G A86U A118G A134G A140G, which self-cleavage is on record?
Its self-cleavage is 1.28.

With A24G A51G A91G A118G U122C as the variant, how does the self-cleavage read?
The self-cleavage was 0.03.

With U9C U12C C35U A118G U120C as the variant, how does the self-cleavage read?
Its self-cleavage is 0.15.

For A56G U102C A111C A140G, which self-cleavage is on record?
The self-cleavage was 0.

For U49C A52G A59G A66G A140G, which self-cleavage is on record?
Its self-cleavage is 1.06.

For A4G U72C U103A, which self-cleavage is on record?
The self-cleavage was 0.18.

With A11G A27G U100A U102C as the variant, how does the self-cleavage read?
The self-cleavage was 1.78.

Which self-cleavage does the source give for A51G A52U A89C here?
The self-cleavage was 0.67.

With U49C A67G A92G U132A as the variant, how does the self-cleavage read?
The self-cleavage was 1.03.

Which self-cleavage does the source give for G21U U49G A95G U102C here?
The self-cleavage was 0.75.

For U37C A54G G79U U120C, which self-cleavage is on record?
Its self-cleavage is 0.05.

For A11G A24G A33G A55G A60U A63G A96G U132C, which self-cleavage is on record?
Its self-cleavage is 0.7.

For A18G U19A U49G A89G, which self-cleavage is on record?
The self-cleavage was 1.46.

For A56G A90U A111G, which self-cleavage is on record?
Its self-cleavage is 0.

With U12C A52G A62G A90G U122C as the variant, how does the self-cleavage read?
Its self-cleavage is 0.81.

For A33G A59G A90G U102C U130C, which self-cleavage is on record?
Its self-cleavage is 1.73.

For A51U A60G A82G A110G, which self-cleavage is on record?
Its self-cleavage is 0.05.

Which self-cleavage does the source give for U19A U43C A56G here?
Its self-cleavage is 0.79.

With U19C A62G A67U as the variant, how does the self-cleavage read?
Its self-cleavage is 1.13.

Which self-cleavage does the source give for A54G A91G A114G here?
Its self-cleavage is 0.38.

With A68G A96G A126G as the variant, how does the self-cleavage read?
The self-cleavage was 1.39.

Which self-cleavage does the source give for A36U U43C A52G A62G here?
The self-cleavage was 1.54.

Which self-cleavage does the source give for A18G U19G C76U here?
Its self-cleavage is 0.22.

Which self-cleavage does the source give for A11G A22U A90G here?
The self-cleavage was 0.77.

For U38C G84A U87C A91G C101G, which self-cleavage is on record?
Its self-cleavage is 0.11.

For U9C A23G A94U A117G, which self-cleavage is on record?
Its self-cleavage is 1.69.

Which self-cleavage does the source give for A5G A91G U108C U132C here?
The self-cleavage was 0.03.

With U57C A86G U124C A129G as the variant, how does the self-cleavage read?
Its self-cleavage is 1.23.

For A78G A92G A135G, which self-cleavage is on record?
The self-cleavage was 0.12.

Which self-cleavage does the source give for A11G A24G A117G here?
Its self-cleavage is 0.82.

With U12C U49A A52G as the variant, how does the self-cleavage read?
Its self-cleavage is 1.14.

For U9A A18G U38C A135G, which self-cleavage is on record?
Its self-cleavage is 0.5.

Which self-cleavage does the source give for A51U A54G A78U A126G here?
The self-cleavage was 0.1.

With A27U A60U U87C A114U as the variant, how does the self-cleavage read?
Its self-cleavage is 0.09.

For A23U A68G A117G, which self-cleavage is on record?
The self-cleavage was 2.48.

For A51G A54C A78G A86C A134G, which self-cleavage is on record?
Its self-cleavage is 0.05.

With A95G U100A G104A A126G as the variant, how does the self-cleavage read?
Its self-cleavage is 0.03.

Which self-cleavage does the source give for G20A U122C A126G here?
The self-cleavage was 0.53.

For A36G A52G A94G U139A, which self-cleavage is on record?
Its self-cleavage is 1.59.

Which self-cleavage does the source give for A56G A82U G106A here?
The self-cleavage was 0.

With A33U A51G A89G A96G as the variant, how does the self-cleavage read?
The self-cleavage was 1.57.

For A24G G29U U37A U38C U39C A89C, which self-cleavage is on record?
The self-cleavage was 0.62.

For A30G A89G A117G, which self-cleavage is on record?
Its self-cleavage is 1.02.

Which self-cleavage does the source give for A5G U37C G58U U130C here?
Its self-cleavage is 0.7.

With A18G A51G A64U A94G as the variant, how does the self-cleavage read?
Its self-cleavage is 1.15.

For A59G A63U U127A U131C, which self-cleavage is on record?
The self-cleavage was 2.95.

Which self-cleavage does the source give for U3C U43C A47G A94G here?
Its self-cleavage is 0.68.

For A51C A69G U72C, which self-cleavage is on record?
Its self-cleavage is 0.24.

Which self-cleavage does the source give for A68G A96G A117G here?
The self-cleavage was 2.71.

For U12C U49G A64G A89G A134U, which self-cleavage is on record?
Its self-cleavage is 1.69.

With U49G C85A U127C as the variant, how does the self-cleavage read?
The self-cleavage was 0.49.

With G14A U37C A55G U103C as the variant, how does the self-cleavage read?
Its self-cleavage is 0.06.

For A5G A111G A118G, which self-cleavage is on record?
Its self-cleavage is 0.

For A59U A69G A78U A89C, which self-cleavage is on record?
Its self-cleavage is 0.23.

For A51G U72A U103C A125G, which self-cleavage is on record?
The self-cleavage was 0.02.

Which self-cleavage does the source give for A23G A47U A55C A96G A110G U122C here?
The self-cleavage was 0.03.

For A23G A129G U131C, which self-cleavage is on record?
Its self-cleavage is 0.87.

With U19C U57C A111G as the variant, how does the self-cleavage read?
The self-cleavage was 0.03.

Which self-cleavage does the source give for A52G U102C U130C A140G here?
The self-cleavage was 2.45.

With A86G A92U A114U as the variant, how does the self-cleavage read?
The self-cleavage was 0.02.

— the RNAGym collection of RNA variant scans (doi:10.7554/elife.90254)
